# PubChem BioAssay (Tox21)
# “And” between values parts separate entries of the source, which are not always exact repeats. Identical values can stand only once. Inconclusive results, whose numbers are uncertain, are shown with a selection of clear calls. A potency beside an inconclusive call is a rough fit, not a confirmed value. More than one record can exist for a structure, and the calls need not agree. The source made the active and inactive calls. The call rests on the fitted dose curve; in most records, active means well fitted cell-killing curve with a large enough effect in the repeat runs; inconclusive means weak or mixed curves; inactive means no such curve, though single readings can be large or run the other way.
# Assay: qHTS assay for identifying genotoxic compounds that show differential cytotoxicity against isogenic chicken DT40 cell lines with known DNA damage response pathways - Rad54/Ku70 mutant cell line (AID 743015); further: nearly all actives have a fitted effect of over 60% in size
# Conditions: DT40 Rad54/Ku70 mutant viability, CellTiter-Glo, 40 h; activity change, negative = cytotoxicity: at 66.8 µM (top of the series)
# On the % scale 0 is the no-effect control and ±100 the full control effect; potency means the concentration at half of the fitted maximal effect; tags describe the fitted curve by direction and shape.
row,SMILES,Potency
1,Brc1cc2ccccc2c2ccccc12,"inconclusive: 69.1 µM [cytotoxic, single point]"
2,CC(=O)OCC(=O)NCCCOc1cccc(CN2CCCCC2)c1,inactive
3,CCCCCC(CO)CCC (stereo not drawn),inactive
4,Cc1cccc(C)c1OCC(C)N (stereo not drawn),"inconclusive: 29.8 µM [cytotoxic, partial curve, poor fit]"
5,CC(C)=CCC/C(C)=C/CC/C(C)=C/CCC(=O)OC/C=C(\C)CCC=C(C)C,"inconclusive: 33.5 µM [cytotoxic, single point]"
6,COc1cc(C)nc(-n2nc(C)cc2OC)n1,"inconclusive: 14.3 µM [cytotoxic, single point]"
7,NCCS(=O)(=O)O,inactive and inconclusive: 31.8 µM [cytotoxic]
8,O=c1c(O)c(-c2ccc(O)cc2O)oc2cc(O)cc(O)c12,"inconclusive: 64.5 µM [cytotoxic, single point]"
9,Cc1cccc(N(C)C(=S)Oc2ccc3c(c2)CCC3)c1,"inconclusive: 33.5 µM [cytotoxic, single point]"
10,Oc1ccc2c(c1)Cc1ccccc1-2,"inconclusive: 43.3 µM [cytotoxic, partial curve]"
11,O=c1cc(-c2ccccc2)oc2ccc3ccccc3c12,"inconclusive: 24.3 µM [cytotoxic, partial curve]"
12,Cc1cc2c(OCC(CNC(C)(C)C)OC(=O)c3ccccc3)cccc2[nH]1 (stereo not drawn),"inconclusive: 33.5 µM [cytotoxic, single point]"
13,Clc1ccc(Nc2nnc(Cc3ccncc3)c3ccccc23)cc1,"inconclusive: 33.5 µM [cytotoxic, single point]"
14,COC(=O)CS,"inconclusive: 65.9 µM [cytotoxic, single point]"
15,Nc1ncnc2c1ncn2[C@H]1CC[C@@H](CO)O1,"inconclusive: 49.5 µM [cytotoxic, partial curve]"
16,CCCCCCOC(C)=O,"inconclusive: 44.2 µM [cytotoxic, partial curve, poor fit] and active: 61.1 µM"
17,COC(=O)CC(C)CCC=C(C)C (stereo not drawn),"inconclusive: 68.6 µM [cytotoxic, single point]"
18,COC(=O)CCS,inactive
19,CN(C(=O)CN(CCO)CC(=O)N(C)C(C)(C)Cc1ccccc1)C(C)(C)Cc1ccccc1,"inconclusive: 14.3 µM [cytotoxic, single point]"
20,CCNc1nc(NC(C)CC)nc(OC)n1 (stereo not drawn),"inconclusive: 77 µM [cytotoxic, single point]"
21,Nc1ccc(N=Nc2ccccc2)c(N)n1,"active: 7.5 µM and inconclusive: 68.9 µM [cytotoxic, single point] and inconclusive: 54.5 µM [cytotoxic, partial curve]"
22,CC/C=C\C/C=C\C/C=C\CCCCCCCC(=O)O,"inactive and active: 60.6 µM and inconclusive: 68.6 µM [cytotoxic, single point]"
23,C=C(C)C(=O)OCC(CC)(COC(=O)C(=C)C)COC(=O)C(=C)C,"inconclusive: 49.3 µM [cytotoxic, partial curve] and inconclusive: 67.3 µM [cytotoxic, single point]"
24,CCCCCCc1ccc(O)cc1O,"inconclusive: 26.6 µM [cytotoxic, partial curve] and inconclusive: 68.8 µM [cytotoxic, single point] and active: 21.7 µM"
25,Nc1ncnc2nc[nH]c12,"inconclusive: 18.8 µM [rising, partial curve, poor fit]"
26,CCn1cc(C(=O)O)c(=O)c2cc(F)c(N3CCNC(C)C3)c(F)c21 (stereo not drawn),"inactive and inconclusive: 33.5 µM [cytotoxic, single point]"
27,C1CN(SSN2CCOCC2)CCO1,"inconclusive: 67.9 µM [cytotoxic, single point]"
28,CCCCCCCCCCCCCOS(=O)(=O)O,"inconclusive: 61.1 µM [cytotoxic, single point]"

# Assay: qHTS assay to identify small molecule antagonists of the androgen receptor (AR) signaling pathway - cell viability counter screen (AID 743033; further: nearly all actives have a fitted effect of over 45% in size)
# Conditions: AR-bla HEK293 viability, CellTiter-Glo luminescence, 16 h; activity change, negative = cytotoxicity: at 58.5 µM (top of the series)
SMILES,Potency,"activity change, negative = cytotoxicity"
CCCCCC(CO)CCC (stereo not drawn),inactive,
Cc1cccc(C)c1OCC(C)N (stereo not drawn),"inconclusive: 0.003 µM [cytotoxic, full curve, poor fit]",
NCCS(=O)(=O)O,"inconclusive: 30.1 µM [rising, partial curve, poor fit]",
Cc1cccc(N(C)C(=S)Oc2ccc3c(c2)CCC3)c1,"inconclusive: 26.8 µM [cytotoxic, single point]",
Oc1ccc2c(c1)Cc1ccccc1-2,"inconclusive: 54.9 µM [cytotoxic, partial curve, poor fit]",
O=c1cc(-c2ccccc2)oc2ccc3ccccc3c12,active: 21.9 µM,
COC(=O)CS,"inconclusive: 11.8 µM [cytotoxic, full curve]",
CCCCCCOC(C)=O,"inconclusive: 61.6 µM [cytotoxic, partial curve, poor fit]",
CN(C(=O)CN(CCO)CC(=O)N(C)C(C)(C)Cc1ccccc1)C(C)(C)Cc1ccccc1,"inconclusive: 0.406 µM [cytotoxic, full curve, poor fit]",
Nc1ccc(N=Nc2ccccc2)c(N)n1,"inconclusive: 43.9 µM [cytotoxic, partial curve, poor fit]",
CC/C=C\C/C=C\C/C=C\CCCCCCCC(=O)O,"inconclusive: 24.3 µM [cytotoxic, partial curve, poor fit]",inconclusive: -41.2% [cytotoxic]
CCCCCCc1ccc(O)cc1O,"inconclusive: 43.8 µM [cytotoxic, partial curve, poor fit] and inconclusive: 49 µM [cytotoxic, partial curve, poor fit]",
C1CN(SSN2CCOCC2)CCO1,"inconclusive: 54.4 µM [cytotoxic, single point] and inconclusive: 61.6 µM [cytotoxic, single point]",
CCCCCCCCCCCCCOS(=O)(=O)O,"inconclusive: 54.9 µM [cytotoxic, partial curve, poor fit]",
